In the supplement of paper PMC3334620:
The full ranking holds about 33,000 sequences; the median of “E-score (-0.5 to 0.5)” is about -0.012, and the highest 2% start at about 0.29. The list shows a part of the results.

Molecular target: T1, Ybr033w (UniProt P38073)
T1 sequence: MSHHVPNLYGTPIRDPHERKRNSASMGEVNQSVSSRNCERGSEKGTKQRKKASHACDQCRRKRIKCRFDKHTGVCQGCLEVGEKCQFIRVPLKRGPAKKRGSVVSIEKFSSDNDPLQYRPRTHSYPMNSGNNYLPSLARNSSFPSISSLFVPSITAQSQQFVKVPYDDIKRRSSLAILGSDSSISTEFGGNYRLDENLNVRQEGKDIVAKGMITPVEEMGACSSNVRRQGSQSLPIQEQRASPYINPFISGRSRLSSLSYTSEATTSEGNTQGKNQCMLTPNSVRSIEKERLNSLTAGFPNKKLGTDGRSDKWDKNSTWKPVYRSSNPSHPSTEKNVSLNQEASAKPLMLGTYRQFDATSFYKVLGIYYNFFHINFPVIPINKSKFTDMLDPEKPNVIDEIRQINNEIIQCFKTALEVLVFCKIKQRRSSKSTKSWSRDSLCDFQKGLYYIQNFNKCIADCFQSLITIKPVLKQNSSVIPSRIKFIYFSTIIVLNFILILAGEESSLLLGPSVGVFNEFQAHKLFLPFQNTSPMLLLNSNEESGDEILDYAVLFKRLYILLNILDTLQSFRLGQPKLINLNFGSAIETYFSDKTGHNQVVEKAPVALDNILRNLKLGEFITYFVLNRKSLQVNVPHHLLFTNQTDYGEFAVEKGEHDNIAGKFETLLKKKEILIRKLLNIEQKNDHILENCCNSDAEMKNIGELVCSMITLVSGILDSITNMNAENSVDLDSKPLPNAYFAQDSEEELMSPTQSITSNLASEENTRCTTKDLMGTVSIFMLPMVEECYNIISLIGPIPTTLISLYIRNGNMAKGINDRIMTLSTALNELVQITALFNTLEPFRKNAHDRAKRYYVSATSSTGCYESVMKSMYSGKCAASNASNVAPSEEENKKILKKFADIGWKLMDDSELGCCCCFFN
Assay: PBM E-score (8-mer binding enrichment) (E-score (-0.5 to 0.5)); higher = stronger / more preferred TF binding; most listed sequences are background and not binding sites
Conditions: protein concentration: 200 nM; construct: GST-full length
Method: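 Universal 'all 10-mer' protein binding microarrays (Agilent AMADID 015681) probed with GST-tagged S. cerevisiae TFs (full-length or DBD) made by in vitro transcription/translation (PURExpress), about 100-200 nM. Bound TF was detected with fluorescent anti-GST. Each ungapped 8-mer (which stands for itself and its reverse complement) is scored by the PBM enrichment score (E-score), a modified Wilcoxon-Mann-Whitney statistic from -0.5 to +0.5, computed with the Universal PBM Analysis Suite. Scale: above 0.35 generally sequence-specific binding.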

Row | Sequence | PBM E-score
1 | AGTCGCAA | 0.0957
2 | ATTAATAG | 0.373
3 | AAGGCCCT | -0.136
4 | CCCACCAA | -0.105
5 | CTCAAAGC | 0.107
6 | CTAGAACA | 0.166
7 | CCGTAAGA | -0.131
8 | ACCTTAGC | -0.0632
9 | GGGCCCCC | -0.299
10 | AACCCCGA | -0.0425
11 | TGAGCGAA | 0.129
12 | AGGGTCAT | -0.252
13 | AGCGTACG | -0.198
14 | GTGTAGTA | -0.0213
15 | CTGGCTGA | -0.152
16 | AACGTCGT | 0.0674
17 | AGGTAGGA | -0.108
18 | GACCTAAA | 0.0634
19 | ACACGATA | 0.178
20 | GAAAGCAA | 0.0974
21 | TGGTCCAA | -0.133
22 | CTAGGGAG | -0.172
23 | CCCACCGC | -0.0625
24 | CAGCGAAG | -0.165
25 | GACCTCAA | 0.047

Row | Sequence | PBM E-score
26 | ATCTCCTG | 0.116
27 | GCGGCGCC | -0.201
28 | GCTCGAAA | 0.00319
29 | ATTGTTCG | 0.244
30 | GCACGCCA | -0.206
31 | CAACCGAG | -0.0277
32 | TCTCTAAA | -0.153
33 | ATTCAGGA | 0.0525
34 | ATAGAGGC | -0.0264
35 | CCATATGA | -0.0574
36 | GCATGGTA | -0.0754
37 | AAAGAACT | 0.127
38 | AGTATCGC | -0.165
39 | CTTCACGA | -0.221
40 | GTATCGAA | 0.239
41 | CTTTTCGA | 0.11
42 | CGAACAAA | 0.191
43 | TATTCGCA | 0.123
44 | GGTTCAGA | 0.053
45 | GGTTTTGA | 0.168
46 | TCTGCCCA | -0.00667
47 | AGTGCGAT | -0.127
48 | TCAATAAA | 0.245
49 | CCGATACC | -0.122
50 | TCCAGAGA | -0.00197

Row | Sequence | PBM E-score
51 | CTTTTGGA | 0.0334
52 | AGAGGACC | -0.179
53 | CCCTCACA | -0.117
54 | ACCATCTC | -0.0025
55 | CGCATTAA | 0.234
56 | AACCTTGG | -0.0337
57 | CCTCCTGC | -0.0702
58 | CAACCCAG | -0.174
59 | CTGGACAA | -0.11
60 | CGACAAAA | 0.195
61 | ACCACCGA | -0.118
62 | GACTCAGA | -0.0988
63 | AATTTGAC | 0.24
64 | AAGCCCCG | -0.249
65 | TACCGAGA | -0.226
66 | CAGACCAC | -0.0942
67 | TTGAGCAA | -0.136
68 | GAGTACGC | -0.0885
69 | GCAGAGAC | -0.354
70 | ACTGCATC | 0.109
71 | CGGTTAAA | 0.133
72 | GAGGTTGA | -0.0641
73 | CCTAGCGA | -0.229
74 | ATTATAAA | 0.229
75 | AAGACGAG | -0.0642

Row | Sequence | PBM E-score
76 | ACTCGCGG | -0.0337
77 | AGGGAGGC | -0.273
78 | ATGTCACG | 0.0332
79 | CGATGATC | 0.148
80 | GAGGCAAA | 0.0439
81 | GACGGTGC | -0.0595
82 | AGCGTTGA | -0.0485
83 | GTGGCCAC | -0.159
84 | TGGACACA | -0.116
85 | GCAGGGTA | -0.0735
86 | ATGAGGTG | -0.122
87 | AATCCCTG | 0.0878
88 | ACTACACT | 0.00844
89 | ACGATAAC | 0.208
90 | ATCGCTCG | -0.0925
91 | TTTATAAA | 0.168
92 | ACTGGAAC | 0.072
93 | AAGCCAGT | -0.101
94 | AGTCGATG | -0.147
95 | CGACCCCA | -0.198
96 | CTCAACCA | 0.00684
97 | ACGGTTGG | -0.0461
98 | CACGCACC | -0.0822
99 | ACTAGGCT | -0.0222
100 | ACCAGTAC | -0.0613

Row | Sequence | PBM E-score
101 | CCTTCTAG | -0.184
102 | CTGTCTGC | -0.25
103 | AGGCTAGA | -0.186
104 | ATTCGCTA | -0.0123
105 | AATCATCC | 0.218
106 | AAACCGTA | -0.0403
107 | CATACGGC | 0.01
108 | GATATAGA | 0.127
109 | AGGGCGCC | -0.179
110 | CTCATCAA | 0.0929
111 | ATGATCTA | 0.228
112 | CGATAGCA | -0.156
113 | TAAACCTA | 0.11
114 | TCCGTAGA | -0.095
115 | CAGGCTTA | -0.148
116 | CTGGGTAC | -0.197
117 | AGTGGAAC | 0.0284
118 | ACGGTAGG | -0.0769
119 | AGGTCACT | -0.164
120 | AGCGAACC | 0.0724
121 | GCCTTCCC | -0.292
122 | TCGTACGA | 0.0409
123 | GCATGGCC | -0.215
124 | AACCACGG | -0.102
125 | ATATAATC | 0.252

Row | Sequence | PBM E-score
126 | CCCAGCGG | -0.322
127 | ATTGGGCC | -0.0192
128 | CGGCATTA | 0.0191
129 | AGGAGGAC | -0.379
130 | CCGCTCTA | -0.134
131 | CAATGGGG | -0.0408
132 | CTGGGGGA | -0.277
133 | CGAACACC | -0.132
134 | CATAGTTC | -0.0864
135 | AATGAACG | 0.0676
136 | AATACGAG | 0.225
137 | AACCATCC | -0.0803
138 | AACCTACC | -0.112
139 | AACAAAAT | 0.291
140 | CAGGCTCC | -0.245
141 | AGCTAGGG | -0.139
142 | ACTCTCGA | -0.0306
143 | CAGCCCAC | -0.0618
144 | GCGGGGCC | -0.246
145 | CGTATTAA | 0.108
146 | ACCCTATG | 0.052
147 | ACAGTCCG | -0.184
148 | ACTATCGC | -0.0121
149 | CCCGGCCC | -0.275
150 | TATAAAGA | 0.181

Row | Sequence | PBM E-score
151 | ACTAAGTC | 0.0517
152 | GCCAATAA | 0.097
153 | AAAGCTGT | 0.199
154 | CTTCTTAC | -0.0554
155 | AAGCGGCC | -0.259
156 | CGGCCTGA | -0.243
157 | CCGTACCG | -0.198
158 | ATTTAGAA | 0.22
159 | CTGGTCAA | 0.0335
160 | CTAGACCA | -0.0132
161 | ACGGAAGA | 0.338
162 | ATATTATA | 0.227
163 | ATACACCG | 0.05
164 | CACTCCTC | -0.339
165 | AGCTCCGG | -0.162
166 | CTACGACC | -0.0526
167 | CCGGTCTA | -0.206
168 | AACCATTA | 0.188
169 | AGGAGCTC | -0.19
170 | CAGGTCTA | 0.0409
171 | AGACCATC | -0.0542
172 | GAGGATGA | 0.00075
